Hit rate of the full screen: of about 200,000 compounds, about 4,500 (2.2%) were called active. This list was built around the results that the source calls inconclusive (neither active nor inactive); the mix of calls is not that of the screen. Calls follow the shape of the dose curve; as a rule, active = well fitted inhibition curve with a large enough effect; inconclusive = small, poorly fitted or top-dose-only effect, or effect the other way; inactive = flat fitted curve, though single readings scatter. Potencies beside an inconclusive call are fits to weak or partial responses and may not hold up.
These compounds were tested against Cruzipain (Trypanosoma cruzi) (UniProt P25779) (assay: qHTS Assay for Promiscuous and Specific Inhibitors of Cruzain (without detergent)). Conditions: purified cruzain, Z-FR-AMC fluorescence, no detergent.
In short: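 Detergent-free condition (0.00005% Triton X-100) in acetate buffer pH 5.5 with DTT. 1.5 nM enzyme and compound were pre-mixed 15 min, then 2 uM Z-FR-AMC substrate added; reaction progress from fluorescence change between first and third reads (60 s).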
Also: nearly all actives have a fitted effect of over 40% in size.
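For max response, negative = inhibition in this document: plate controls were enzyme without inhibitor for no effect and buffer without enzyme for full effect.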
Potency is read from the fitted curve at half-maximal effect; tags tell the direction and shape of the fitted curve.

UniProt P25779, sequence (P25779 whole entry, looked up): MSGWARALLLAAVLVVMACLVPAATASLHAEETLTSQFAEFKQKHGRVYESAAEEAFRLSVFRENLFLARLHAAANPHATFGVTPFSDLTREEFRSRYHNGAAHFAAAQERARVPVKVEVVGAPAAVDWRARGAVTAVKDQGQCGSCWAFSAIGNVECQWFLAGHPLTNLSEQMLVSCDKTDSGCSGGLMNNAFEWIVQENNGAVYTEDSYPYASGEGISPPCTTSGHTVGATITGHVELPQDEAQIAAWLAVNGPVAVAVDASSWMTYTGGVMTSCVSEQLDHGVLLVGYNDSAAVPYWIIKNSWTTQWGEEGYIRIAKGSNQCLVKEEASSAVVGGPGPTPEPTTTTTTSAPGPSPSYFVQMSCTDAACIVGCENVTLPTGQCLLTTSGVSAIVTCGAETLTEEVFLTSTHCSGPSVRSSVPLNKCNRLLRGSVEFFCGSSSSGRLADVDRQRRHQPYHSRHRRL

Compound	max response, negative = inhibition	Potency
Cc1cc(Br)ccc1SCC(=O)OCC(=O)NC(C)c1ccccc1 (configuration not stated)	inactive: -3.89%	–
CCCCCC(=O)Nc1nc(C)c(-c2csc(Nc3ccc(Cl)cc3)n2)s1	–	active: 12.6 µM
CCOC(=O)C1CCCN(C(=O)c2ccccc2NC(=O)c2nsc3ccccc23)C1 (configuration not stated)	inactive: 10.5%	–
CCOc1ccc2nc(NC(=O)CSc3nc4ccccc4c(=O)n3Cc3ccco3)sc2c1	–	active: 7.94 µM
Cc1nc2ccc3nc(NC(=O)C4COc5ccccc5O4)sc3c2s1 (configuration not stated)	–	inconclusive: 25.1 µM [activator, partial curve]
CC(C)S	inactive: 11.3%	–
COc1ccc(OCCSc2nnc(CCNC(=O)c3ccc(Cl)c(Cl)c3)n2C)cc1	–	inconclusive: 39.8 µM [activator, single point]
CCCCOc1ccc(-c2ncc(C(=O)OCC)c(N)n2)cc1	–	inconclusive: 31.6 µM [activator, single point]
CCOc1cc(C2C(C(=O)OC)=C(C)N=C3SC(C)C(=O)N32)ccc1OC(C)=O (configuration not stated)	–	inconclusive: 39.8 µM [activator, single point]
O=C(c1ccc([N+](=O)[O-])cc1)n1nc(-c2ccccc2)nc1NCc1ccccc1	–	inconclusive: 39.8 µM [inhibitor, single point]
COc1ccccc1NS(=O)(=O)c1cccc(C(=O)N/N=C/c2cn(-c3ccccc3)nc2-c2ccccc2)c1	–	active: 12.6 µM
O=C(N=Nc1c(O)[nH]c2ccccc12)c1ccccc1NS(=O)(=O)c1cccs1	–	inconclusive: 31.6 µM [inhibitor, single point]
COc1ccc(OC)c(CCNC(=O)c2cnn(-c3ccccc3)c2-n2cccc2)c1	inactive: -3.39%	–
Cc1cc(N(CCO)CCO)ccc1C(c1ccc(N(CCO)CCO)cc1C)c1ccccc1Cl	–	inconclusive: 3.16 µM [activator, single point]
O=[N+]([O-])c1ccc(N(c2ccccc2)c2ccccc2)cc1	–	inconclusive: 31.6 µM [inhibitor, single point]
CCc1ccc(NC(=O)Cn2c(=O)n(Cc3ccc(C)cc3)c(=O)c3cccnc32)cc1	inactive: -9.62%	–
Cc1cc(C)cc(N2C(=O)CSC23C(=O)N(CC(=O)NC2CCCCC2)c2ccccc23)c1 (configuration not stated)	inactive: -10.5%	–
CCC(=NCCc1c(C)[nH]c2ccc(C)cc12)C1=C(O)CC(c2ccccc2)CC1=O (configuration not stated)	–	inconclusive: 39.8 µM [inhibitor, single point]
COc1ccc(OC)c(Nc2ncnc3c2cnn3-c2cccc(C)c2)c1	–	inconclusive: 39.8 µM [activator, single point]
Cc1ccc(SCC(=O)Nc2ccc(N3CCN(C)CC3)c(F)c2)cc1	inactive: -1.03%	–
CCOC(=O)c1cnc(SCc2nc(N)nc(Nc3ccc(C)cc3)n2)nc1N	–	inconclusive: 31.6 µM [activator, single point]
COc1ccc(CCNC(=O)CCc2c(C)nc3cc(-c4ccc(Cl)cc4)nn3c2C)c(OC)c1	inactive: -1.85%	–
CN(C)c1ccc(NC(=O)c2cn(-c3ccccc3)nc2-c2cccs2)cc1	–	inconclusive: 31.6 µM [inhibitor, single point]

Compound	max response, negative = inhibition	Potency
COc1ccc(S(=O)(=O)N2CCCCC2)cc1NC(=O)Cc1c[nH]c2ccccc12	–	inconclusive: 39.8 µM [inhibitor, single point]
COc1ccc(NC(=O)c2sc3nc4n(c(=O)c3c2C)CCC4)c(OC)c1	inactive: 9.73%	–
O=C(CSC1=NCCS1)Nc1nc2ccccc2s1	inactive: -11.1%	–
CC(=O)c1cccc(NC(=O)c2ccc(N(Cc3ccc(C)cc3)S(C)(=O)=O)cc2)c1	–	inconclusive: 39.8 µM [activator, single point]
C=CCn1c(SCCOc2ccc(OC)cc2)nnc1C(C)NC(=O)Cc1ccc(OC)cc1 (configuration not stated)	–	inconclusive: 31.6 µM [activator, single point]
CCOc1ccccc1NC(=O)C1CCCN(S(=O)(=O)c2cccs2)C1 (configuration not stated)	inactive: -14%	–
COc1cc2c(C(=O)N3CCN(c4ccc(F)cc4)CC3)cn(CC(C)C)c(=O)c2cc1OC	–	inconclusive: 31.6 µM [activator, single point]
CCn1cc(C(=O)N(C)c2cc(C)ccc2C)c2cc(OC)c(OC)cc2c1=O	inactive: -3.18%	–
O=S(=O)(Nc1nc2n(n1)C(c1ccc(F)cc1)C=C(c1ccc(Cl)cc1)N2)c1ccccc1 (configuration not stated)	–	inconclusive: 39.8 µM [activator, single point]
CN(C)CCN(c1ccccn1)c1ccccn1	inactive: 7.74%	–
COc1ccc(Br)cc1CNC(=O)C1CCN(c2nnc(-n3cccc3CNc3ccc(C)cc3)s2)CC1	–	active: 31.6 µM
Clc1ccc(/C=N/Nc2nc(Cl)nc3ccccc23)cc1	–	inconclusive: 31.6 µM [inhibitor, single point]
O=C(Nc1cnn(Cc2ccccc2)c1)c1nc2ncccn2n1	inactive: -6.05%	–
COc1cccc(/C=C2\SC(=S)N(N3CCOCC3)C2=O)c1OC	–	inconclusive: 39.8 µM [activator, single point]
COCCN(C(=O)c1ccco1)c1nnc(-c2ccc(OC)c(OC)c2)s1	–	inconclusive: 39.8 µM [activator, single point]
CCc1ccc(NC(=S)N2CCN(c3cccc(C(F)(F)F)c3)CC2)cc1	–	inconclusive: 31.6 µM [inhibitor, single point]
Cc1nc2c(-c3ccccc3)c(C)nn2c(N)c1-c1ccccc1	–	inconclusive: 0.398 µM [activator, partial curve]
CCOC(=O)c1cc(-c2ccc(OC)cc2F)nc2c1c(C)nn2CCC#N	–	inconclusive: 31.6 µM [activator, single point]
COc1ccc(C2Nc3ccccc3C(=O)N2Cc2ccccc2)cc1CSc1ccccn1 (configuration not stated)	–	inconclusive: 39.8 µM [inhibitor, single point]
CC1=NOC(=O)/C1=C\c1ccc(-c2cccc(Cl)c2)o1	–	inconclusive: 25.1 µM [activator, partial curve]
O=C(Nc1cc(S(=O)(=O)Nc2ccc(Cl)cc2)ccc1N1CCCCC1)c1ccc(F)cc1	–	inconclusive: 39.8 µM [inhibitor, single point]
Cc1ccc(-c2cn3c(n2)sc2cc(C(=O)NC4CCCCCC4)ccc23)cc1	–	inconclusive: 39.8 µM [activator, single point]
COC(=O)c1c(NC(=O)CSc2nc3ccccc3c(=O)n2Cc2ccco2)sc(C)c1C	–	active: 25.1 µM

Compound	max response, negative = inhibition	Potency
COc1cc(NC(=O)CSc2cc(=O)n(C)c3ccccc23)cc(OC)c1OC	inactive: -11.2%	–
Cc1c(C(=O)N(C)Cc2ccccc2)sc2nc(-c3ccc(F)cc3)cn12	inactive: 5.42%	–
Cc1ccc(C)c(CSc2cn(CC(=O)N3CCCC3)c3ccccc23)c1	–	inconclusive: 31.6 µM [activator, single point]
CC(=O)NCCNc1nc(-c2ccccc2C)nc2ccccc12	inactive: 2.03%	–
COc1ccc(NC(=O)CC2C(=O)N(c3ccc(OC)cc3)C(=O)N2Cc2ccc(OC)c(OC)c2)cc1 (configuration not stated)	–	inconclusive: 39.8 µM [activator, single point]
O=C(/C=C/c1cccs1)Nc1nc(-c2ccccc2)cs1	–	inconclusive: 25.1 µM [inhibitor, single point]
CCOC(=O)C1CSC(Cc2ccc(OCc3ccc([N+](=O)[O-])cc3)cc2)N1 (configuration not stated)	inactive: -20.6%	–
CCN(CC)C(=O)Cn1c(=O)n(-c2ccc(Cl)cc2)c(=O)c2c3c(sc21)CCCCC3	inactive: -5.42%	–
COc1ccc(-c2nnc(CSc3nc4ccccc4c(=O)n3C)o2)cc1OC	–	inconclusive: 39.8 µM [activator, single point]
NC(=S)N/N=C\c1ccc(-c2cccc(Cl)c2Cl)o1	–	active: 0.631 µM
COc1cc(C2c3c(oc4cc(C)c(C)cc4c3=O)C(=O)N2c2cc(C)ccn2)ccc1O (configuration not stated)	–	inconclusive: 20 µM [activator, partial curve]
COc1ccc(CN(C(=O)c2ccccc2F)C2CCS(=O)(=O)C2)cc1 (configuration not stated)	inactive: 12.7%	–
Cc1ccc(-c2nc(C3CCN(S(=O)(=O)c4ccc(C(C)(C)C)cc4)CC3)no2)cc1	–	inconclusive: 25.1 µM [inhibitor, single point]
Cc1ccc(NC(=O)CN2C(=O)c3cccnc3Sc3ccccc32)cc1C	inactive: 20.7%	–
CCCSc1ncc(Cl)c(C(=O)Nc2ccc(S(=O)(=O)N3CCCC(C)C3)cc2)n1 (configuration not stated)	–	inconclusive: 39.8 µM [inhibitor, single point]
O=C(/C=C/c1c(Cl)cccc1Cl)N1CCN(c2ncccn2)CC1	–	inconclusive: 0.126 µM [inhibitor, single point]
O=C(Nc1ccc(F)cc1)c1c(O)c2c(n(Cc3ccccc3)c1=O)CCCC2	–	inconclusive: 39.8 µM [inhibitor, single point]
O=C(CSc1nc(Nc2ccccc2)nc(N2CCOCC2)n1)Nc1ccc([N+](=O)[O-])cc1	–	inconclusive: 39.8 µM [inhibitor, single point]
CC(C)CN(C(=O)COC(=O)CCc1c[nH]c2ccccc12)C1CCS(=O)(=O)C1 (configuration not stated)	–	inconclusive: 39.8 µM [activator, single point]
Cc1nc2sc(C)c(C)n2c(=O)c1S(=O)(=O)N1CCN(c2ccccc2F)CC1	inactive: 5.67%	–
COc1ccccc1OCC(=O)OC/C(O)=C(\C#N)c1nc2ccccc2[nH]1	–	inconclusive: 31.6 µM [inhibitor, single point]

Source: PubChem BioAssay AID1476 (National Center for Advancing Translational Sciences (NCATS), 2009)
